The shares of active, inactive and inconclusive entries below differ from those in the screen. Potencies of inconclusive entries are left out as doubtful fits. Activity calls are given as the source filed them. Calls follow the shape of the dose curve; as a rule, active = well fitted curve in the direction sought with a large enough effect; inconclusive = small, poorly fitted or top-dose-only effect, or another doubt; inactive = no such curve, though single readings can be large; an effect the other way counts as inactive or inconclusive.
Assays:
[1] = biological target: Cytochrome P450 3A7 (Homo sapiens) (UniProt P24462); assay: Cytochrome P450 family 3 subfamily A member 7 (CYP3A7) small molecule antagonists: luciferase biochemical qHTS assay (AID 1963596); also: nearly all actives have a fitted effect of over 40% in size
Outline: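 P450-Glo luminescent assay: CYP3A7 enzyme converts a proluciferin substrate to luciferin, detected by luciferase reagent; light proportional to activity. Compounds in DMSO preincubated 10 min with enzyme-substrate mix at room temperature, then NADPH regeneration added for 1 h.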

[2] = Cellular viability qHTS for adrenocortical cancer (ACC) cell line NCI-H295R (AID 1963990); settings: CellTiter-Glo ATP luminescence, 48 h; activity change, negative = viability loss: at 46.1 µM (top of the series); also: nearly all actives have a fitted effect of over 60% in size;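 as to activity change, negative = viability loss: 0% = DMSO only wells and -100% = full killing with cytotoxic reference compound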
Outline: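 Viability of NCI-H295R after 48 h of treatment (final up to 46 uM) measured through cellular ATP luminescence.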

[3] = Viability qHTS for spleen associated tyrosine kinase inhibitor (SYKi) naive MV4-11 cells (AID 1963823); settings: MV4-11 AML viability, CellTiter-Glo luminescence, 72 h; viability (% of control): at 45 µM (top of the series); also: nearly all actives have a fitted effect of over 40% in size
Outline: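 SYK inhibitor-naive MV4-11 cells, 500 per well, exposed to compounds for 72 hr at 37 C, 5% CO2. Viability read as CellTiter-Glo luminescence after 10 min at room temperature.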

[4] = Quantitative highthroughput screen to assess conditional lethalithy of SEM cells grown in RPMI1640 with unreated serum (RPMI+s) (AID 1963883); settings: SEM B-ALL cells, CellTiter-Glo viability, 48 h; viability: at 45.8 µM (top of the series); also: nearly all actives have a fitted effect of over 35% in size;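 as to viability: 100% = DMSO wells and 0% = empty wells without cells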
Outline: (§1)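 Each medium arm—HPLM with 10% dialyzed FBS, or RPMI1640 with 5 mM glucose and 10% untreated or dialyzed FBS—was screened against an 11-point, 3-fold compound titration for 48 h at 37 °C, with CellTiter-Glo luminescence as endpoint.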

[5] = Quantitative highthroughput screen to assess conditional lethalithy of SEM cells grown in RPMI1640 with dialyzed fetal bovine serum (RPMI+ds) (AID 1963884); settings: SEM B-ALL cells, RPMI+dialyzed FBS, CellTiter-Glo viability, 48 h; viability: at 45.8 µM (top of the series); also: nearly all actives have a fitted effect of over 35% in size;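 as to viability: 100% = DMSO control wells and 0% = empty wells without cells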
Outline: as §1

[6] = Cellular viability qHTS for adrenocortical cancer (ACC) cell line SW-13 (AID 1963989); settings: SW-13 ACC cells viability, CellTiter-Glo, 48 h; activity (max response): hits give low values; also: nearly all actives have a fitted effect of over 65% in size;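 as to activity (max response): cells grown in serum-free medium with ITS supplement; % is scaled to controls: 0 for no effect and ±100 for the full control effect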
Outline: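 Here, serum-free SW-13 cultures were dosed up to 46 uM. Following 48 h, ATP-dependent luminescence (CellTiter-Glo) reported viable cells, and logistic modeling produced IC50 values.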

[7] = Quantitative highthroughput screen to assess conditional lethalithy of NOMO1 cells grown in RPMI1640 with untreated serum (RPMI+s) (AID 1963876); settings: NOMO1 AML cells in RPMI+serum, CellTiter-Glo viability, 48 h; viability: at 45.8 µM (top of the series); also: nearly all actives have a fitted effect of over 35% in size
Outline: as §1

[8] = Quantitative highthroughput screen to assess conditional lethalithy of NOMO1 cells grown in RPMI1640 with dialyzed fetal bovine serum (RPMI+ds) (AID 1963877); also: nearly all actives have a fitted effect of over 30% in size
Outline: as §1

[9] = Quantitative highthroughput screen to assess conditional lethalithy of NOMO1 cells grown in Human Plasma-Like Medium with dialyzed fetal bovine serum (HPLM+ds) (AID 1963878); settings: NOMO1 AML cells in HPLM+ds, CellTiter-Glo viability, 48 h; viability: at 45.8 µM (top of the series); also: nearly all actives have a fitted effect of over 35% in size
Outline: as §1

[10] = Quantitative highthroughput screen to assess conditional lethalithy of P12 Ichikawa cells grown in RPMI1640 with dialyzed fetal bovine serum (RPMI+ds) (AID 1963880); settings: Potency: P12-Ichikawa viability; also: nearly all actives have a fitted effect of over 35% in size;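 as to viability: 100% = DMSO wells and 0% = empty wells on each plate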
Outline: as §1

[11] = Quantitative highthroughput screen to assess conditional lethalithy of P12 Ichikawa cells grown in RPMI1640 with untreated serum (RPMI+s) (AID 1963881); settings: Potency: viability; also: nearly all actives have a fitted effect of over 35% in size
Outline: as §1

[12] = Quantitative highthroughput screen to assess conditional lethalithy of P12 Ichikawa cells grown in Human Plasma-Like Medium with dialyzed fetal bovine serum (HPLM+ds) (AID 1963879); settings: Potency: viability; also: nearly all actives have a fitted effect of over 35% in size
Outline: as §1

[13] = Quantitative highthroughput screen to assess conditional lethalithy of SEM cells grown in Human Plasma-Like Medium with dialyzed fetal bovine serum (HPLM+ds) (AID 1963882); also: nearly all actives have a fitted effect of over 35% in size
Outline: as §1
Potency is read from the fitted curve at half-maximal effect; tags tell the direction and shape of the fitted curve.

Chain of UniProt P24462 (P24462 whole entry, looked up): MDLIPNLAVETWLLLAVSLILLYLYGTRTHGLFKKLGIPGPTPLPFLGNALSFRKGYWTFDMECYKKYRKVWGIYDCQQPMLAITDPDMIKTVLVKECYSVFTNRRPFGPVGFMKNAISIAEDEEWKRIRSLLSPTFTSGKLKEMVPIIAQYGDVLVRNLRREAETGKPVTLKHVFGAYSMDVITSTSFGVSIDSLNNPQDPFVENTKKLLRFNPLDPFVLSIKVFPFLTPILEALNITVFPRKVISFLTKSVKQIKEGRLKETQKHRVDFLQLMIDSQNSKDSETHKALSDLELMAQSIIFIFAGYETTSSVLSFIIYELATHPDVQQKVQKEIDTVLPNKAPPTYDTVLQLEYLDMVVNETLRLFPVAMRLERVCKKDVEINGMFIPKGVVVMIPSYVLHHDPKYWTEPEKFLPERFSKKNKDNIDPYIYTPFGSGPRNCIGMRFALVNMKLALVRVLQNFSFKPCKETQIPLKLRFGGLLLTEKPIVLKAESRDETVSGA

With `CCOc1ccc(NC(=O)CC(C)O)cc1` (centres undefined) the Potency [1] was “inactive” and the Potency [2] was “inactive”.

For `O=C(NCCN1CCC(n2c(=O)[nH]c3ccccc32)CC1)c1cc2cc(F)ccc2[nH]1`, the Potency [3] was active: 18.4 µM.

With `Cc1cnc(C(=O)O)c[n+]1[O-]` the Potency [1] was inconclusive [inhibitor, partial curve, poor fit], the Potency [4] was “inactive” and the Potency [5] was “inactive”. For the same compound, the activity (max response) [6] was inactive: -15.7%.

For `CC(C)c1cnn2c(NCc3ccccc3)cc(N[C@@H](CO)[C@H](O)CO)nc12`, the Potency [1] was inconclusive [inhibitor, partial curve], the Potency [7] was active: 0.743 µM and the Potency [8] was active: 0.743 µM. The Potency [9] was active: 0.662 µM, the Potency [10] was active: 1.18 µM and the Potency [11] was active: 1.05 µM. For the same compound, the Potency [4] was active: 0.59 µM, the Potency [5] was active: 0.743 µM and the Potency [6] was active: 0.891 µM.

In the case of `O=C(CC12CC3CC(CC(C3)C1)C2)Nc1cccc2nc(NCCNCCO)ccc12`, the Potency [1] is reported as inconclusive [inhibitor, single point], the Potency [7] is reported as inconclusive [cytotoxic, single point] and the Potency [8] is reported as inconclusive [cytotoxic, single point]. The Potency [9] was inconclusive [cytotoxic, single point], the Potency [12] was inconclusive [cytotoxic, single point] and the Potency [10] was inconclusive [cytotoxic, single point]. For the same compound, the Potency [11] was inconclusive [cytotoxic, single point], the Potency [13] was inconclusive [cytotoxic, single point] and the Potency [4] was inconclusive [cytotoxic, single point]. The Potency [5] was inconclusive [cytotoxic, single point], the Potency [6] was inconclusive [cytotoxic, single point] and the Potency [2] was inconclusive [cytotoxic, single point].

With `COc1ccc(C(=O)NCc2ccc(OCCN(C)C)cc2)cc1OC` the Potency [1] was “inactive” and the activity (max response) [6] was inactive: 1.66%.

With `Clc1ccc(-c2nc3sccn3c2C=NOCc2ccc(Cl)c(Cl)c2)cc1` the Potency [1] was inconclusive [inhibitor, partial curve, poor fit], the Potency [12] was “inactive” and the Potency [10] was “inactive”. The Potency [13] was “inactive”.

For `O=C(O)CNC(=O)c1ccccc1I`, the Potency [1] was “inactive”, the Potency [6] was inconclusive [cytotoxic, single point] and the Potency [2] was inconclusive [cytotoxic, single point].

In the case of `CCCCCCCCCCCCCCCC(=O)OC[C@@H](NC(=O)C(Cl)Cl)[C@H](O)c1ccc([N+](=O)[O-])cc1`, the Potency [1] is reported as inconclusive [inhibitor, full curve], the Potency [12] is reported as “inactive” and the Potency [5] is reported as “inactive”.

In the case of `Cc1ccc(N2CCN(CCC3NC(=O)c4ccccc43)CC2)cc1C` (centres undefined), the Potency [3] is reported as inconclusive [cytotoxic, single point].

With `O=C(Nc1ccccc1)N1CCN(c2nc(-c3ccccc3)ns2)CC1` the Potency [3] was active: 14.6 µM.

In the case of `Cc1c(C(=O)O)c(O)cc2c1C(=O)c1c(O)c([C@@H]3O[C@H](CO)[C@@H](O)[C@H](O)[C@H]3O)c(O)c(O)c1C2=O`, the Potency [1] is reported as inconclusive [inhibitor, partial curve, poor fit], the Potency [6] is reported as inconclusive [cytotoxic, partial curve] and the Potency [2] is reported as inconclusive [cytotoxic, single point].

In the case of `O=C(Nc1nc2cccc(-c3ccc(CN4CCS(=O)(=O)CC4)cc3)n2n1)C1CC1`, the Potency [1] is reported as inconclusive [inhibitor, single point], the Potency [7] is reported as inconclusive [cytotoxic, single point] and the Potency [8] is reported as inconclusive [cytotoxic, single point]. For the same compound, the Potency [12] was inconclusive [cytotoxic, single point], the Potency [10] was inconclusive [cytotoxic, single point] and the Potency [11] was inconclusive [cytotoxic, single point]. For the same compound, the Potency [13] was inconclusive [cytotoxic, partial curve], the Potency [4] was inconclusive [cytotoxic, single point] and the Potency [2] was active: 28.2 µM.
